Assay results taken from PubChem BioAssay AID686978 (National Center for Advancing Translational Sciences (NCATS), 2013).
Out of some 420,000 compounds screened, about 64,000 (15%) were called active. The shares of active, inactive and inconclusive entries below differ from those in the screen. The call rests on the fitted dose curve; in most records, active means well fitted inhibition curve with a large enough effect; inconclusive means small, poorly fitted or top-dose-only effect; inactive means flat fitted curve, though single readings scatter. No potency is given beside an inconclusive call; the fits are too rough.

Assay: qHTS for Inhibitors of human tyrosyl-DNA phosphodiesterase 1 (TDP1): qHTS in cells in absence of CPT; further: nearly all actives have a fitted effect of over 55% in size
Details: DT40 Tdp1-/- hTDP1 cells, no CPT, ATP luminescence, 48 h; series mostly up to 46.2 µM
Method in brief: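 A cellular qHTS used chicken DT40 cells lacking endogenous Tdp1 but carrying stably transfected human TDP1. Compounds were applied without camptothecin, and cell growth kinetics were judged by ATP-dependent luminescence after ≥48 hr.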
Potency means the concentration at half of the fitted maximal effect; tags describe the fitted curve by direction and shape.

Row | Compound | Potency
1 | COc1ccc(C2=NC(C(F)(F)F)(C(F)(F)F)c3c(n(C)c(=O)n(C)c3=O)N2)cc1 | active: 18.4 µM
2 | CC(C)OCCCNC(=O)c1ccc(CN2CCc3ccccc3C2)cc1 | inconclusive [inhibitor, single point]
3 | CC(=O)Nc1ccc(NC(=O)C23CC4CC(C2)CC(n2cnc(Br)n2)(C4)C3)cc1 | inactive
4 | CC(=O)OCC[C@H](NS(=O)(=O)OCC(Cl)(Cl)Cl)c1ccccc1 | inactive
5 | C/C(=N\NC(=O)C(C)n1nc(C)c([N+](=O)[O-])c1C)c1ccccc1O (configuration not stated) | active: 1.84 µM
6 | Cc1ccc2nc(/C(C#N)=C/c3ccc(-c4ccc(C(=O)OC(C)C)cc4)o3)[nH]c2c1 | active: 5.17 µM
7 | COc1ccc2nc(Nc3ccc4c(c3)OCO4)sc2c1 | inactive
8 | Cn1c(=O)n(C)c2cc(N3CCOCC3)c(NS(=O)(=O)c3ccc(F)cc3)cc21 | inconclusive [inhibitor, single point]
9 | Cc1ccc(C(=O)N2CCCc3ccccc32)c(Cl)c1 | inconclusive [inhibitor, single point]
10 | CC(=O)c1ccc(OCc2cc(C(=O)N(C)Cc3ccon3)no2)cc1 | inactive
11 | CCOc1cc2c3c(c1)C1(Nc4ccccc4S1)C(=O)N3C(C)(C)CC2C (configuration not stated) | inconclusive [inhibitor, single point]
12 | O=C1CN(C(=O)c2c(F)cccc2Cl)C(c2ccc(F)cc2)c2cc(Br)ccc2N1 (configuration not stated) | inconclusive [inhibitor, single point]
13 | COc1ccc2[nH]c3c(c2c1)CCN1C(=O)C(CC(=O)NCc2cccc(C(F)(F)F)c2)C[C@H](C(=O)N2CCCCC2)[C@@]31CCc1ccccc1 (some centres not stated) | inconclusive [inhibitor, single point]
14 | COc1ccc2[nH]c(=O)c(CN(Cc3nnnn3Cc3ccccc3)CC3CCCO3)cc2c1 (configuration not stated) | inconclusive [inhibitor, single point]
15 | CCOc1ccc(NC(=O)CSc2nccn2C2CCCC2)cc1 | inconclusive [inhibitor, partial curve]
16 | CCOC(=O)c1c(NC(=O)COC(=O)CCOc2ccc(C)cc2)sc(C(=O)N(C)C)c1C | inactive
17 | Cc1ccc(OCC(=O)Nc2ccc(NC(=O)c3ccccc3)c(C)c2)cc1 | inactive
18 | CCn1c(CNC(=O)c2cccc(C)c2)nnc1SCC(=O)NC1=NCCS1 | inconclusive [inhibitor, single point]
19 | COc1ccccc1CNC(=O)N1CCN(c2ccccc2C)CC1 | inconclusive [inhibitor, partial curve]
20 | Cc1cc(NC(=O)CSc2nnnn2-c2ccccc2C)no1 | inconclusive [inhibitor, single point]
21 | CN(C(=S)Nc1ccc(Oc2ccccc2)cc1)c1ccc(O)cc1 | inconclusive [inhibitor, single point]
22 | Nc1nc(-c2cccc(NS(=O)(=O)c3ccccc3)c2)cs1 | inconclusive [inhibitor, partial curve]
23 | Cc1ccc(CCNC(=O)C2CCCN(c3nc4ccccc4o3)C2)cc1 (configuration not stated) | inactive
24 | CCN1CCN(S(=O)(=O)c2ccc(OC)c(NC(=O)c3ccccc3F)c2)CC1 | inconclusive [inhibitor, single point]

Row | Compound | Potency
25 | Clc1ccc(CN2CCN(c3ncnc4scc(-c5cccs5)c34)CC2)cc1 | active: 16.4 µM
26 | Cc1ccc(CN2C(=O)CN(C3CCCCCC3)C(=O)C2c2ccc(F)cc2)cc1 (configuration not stated) | active: 16.4 µM
27 | O=C(Nc1cccc(-c2nc3ccccc3o2)c1)c1cccnc1 | active: 20.6 µM
28 | Cn1cc[n+](C)c1COc1ccc(C=O)cc1 | inactive
29 | CN(C(=O)CCN1C(=O)c2ccccc2C1=O)C1CCCCC1 | inactive
30 | CCNc1c([N+](=O)[O-])c(=O)oc2ccccc12 | inactive
31 | COc1ccc(-n2c(=O)c3c4c(sc3n(CC(=O)C(C)(C)C)c2=O)CCCC4)c(OC)c1 | inconclusive [inhibitor, single point]
32 | O=C(c1ccc(-c2cccc(C(F)(F)F)c2)o1)N1CCOCC1 | inconclusive [inhibitor, partial curve]
33 | CCN(CCCNC(=O)COc1cc(=O)n(C)c2ccccc12)c1ccccc1 | inactive
34 | CC1Cc2ccccc2N1C(=O)CSC1=NCCS1 (configuration not stated) | inconclusive [inhibitor, single point]
35 | CCCCCCc1cc2cc(-c3nnc(-c4ccccc4OC)o3)c(=O)oc2cc1O | active: 16.4 µM
36 | Cc1ccc(OCC(=O)Nc2ccc(S(=O)(=O)Nc3ccccn3)cc2)c(C)c1 | active: 18.4 µM
37 | COc1ccc(OC)c(NC(=O)c2cc3c(Cl)nc4ccccc4c3s2)c1 | inconclusive [inhibitor, partial curve]
38 | Cc1ccc(OCc2cc(=O)n3c(-c4ccccc4)csc3n2)cc1 | inactive
39 | CNc1cc(OC)c(C(=O)N[C@H]2CCN(Cc3ccccc3)[C@H]2C)cc1Cl | active: 11.9 µM
40 | CC(C)Oc1ccccc1/C=N/Nc1ccccc1[N+](=O)[O-] | inconclusive [inhibitor, single point]
41 | O=C(NC1CCCc2ccccc21)c1ccccc1OC(F)F (configuration not stated) | inconclusive [inhibitor, single point]
42 | CC(C)NC(=O)N(C)C[C@@H]1Oc2ccc(NC(=O)CCN3CCOCC3)cc2CC(=O)N([C@@H](C)CO)C[C@@H]1C | inactive
43 | Cc1ccc(C)c(NS(=O)(=O)c2cc(C(=O)NCCC3=CCCCC3)ccc2C)c1 | inconclusive [inhibitor, single point]
44 | CCN(CC(=O)Nc1ccc2c(c1)OCCO2)C(=O)c1ccc([N+](=O)[O-])s1 | inconclusive [inhibitor, single point]
45 | CCC1Oc2ccccc2N(CC(=O)NCc2ccco2)C1=O (configuration not stated) | inactive
46 | Cn1c2c(c3ccccc31)CCN=C2c1ccccc1 | inactive
47 | O=C(NC1CCCN(Cc2ccc(Cl)cc2)C1)c1cccc(F)c1 (configuration not stated) | inconclusive [inhibitor, single point]
